The shares of active, inactive and inconclusive entries below differ from those in the screen. For part of these data: A potency beside an inconclusive call is a rough fit, not a confirmed value. The source made the active and inactive calls. Unless noted, the call rests on the fitted dose curve; in most records, active means well fitted curve in the direction sought with a large enough effect in the repeat runs; inconclusive means weak or mixed curves; inactive means no such curve, though single readings can be large; an effect the other way counts as inactive or inconclusive.
Tests used:
[1] = target: Peroxisome proliferator-activated receptor gamma (Homo sapiens) (UniProt P37231); assay: qHTS assay to identify small molecule antagonists of the peroxisome proliferator-activated receptor gamma (PPARg) signaling pathway (AID 743191; calls by dose curve; further: nearly all actives have a fitted effect of over 30% in size; further: potency means the concentration at half of the fitted maximal effect); details: HEK293H PPARg-UAS-bla, beta-lactamase ratio, antagonist, 17 h; ratio activity, negative = inhibition: at 62.6 µM (top of the series) unless noted
Procedure, shortened: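 GeneBLAzer PPARg UAS-bla HEK293H cells, 5 h post-plating, exposed to compounds 17 h at 37C. LiveBLAzer B/G FRET substrate added for 1 h at room temperature; beta-lactamase reporter read by fluorescence intensity.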

[2] = qHTS assay to identify small molecule agonists of the progesterone receptor (PR) signaling pathway - cell viability counter screen (AID 1346799; calls by dose curve; further: nearly all actives have a fitted effect of over 45% in size; further: potency means the concentration at half of the fitted maximal effect)
Procedure, shortened: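 Cytotoxicity measured by CellTiter-Glo luminescence (30 min, RT) in the same wells as the PR beta-lactamase agonist read. Those HEK293T cells had 16 h compound treatment at 37 C in 2% charcoal-stripped FBS medium.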

[3] = qHTS assay to identify small molecule antagonists of the progesterone receptor (PR) signaling pathway - cell viability counter screen (AID 1346798); further: nearly all actives have a fitted effect of over 50% in size; further: potency means the concentration at half of the fitted maximal effect
Procedure, shortened: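 Cytotoxicity read as CellTiter-Glo luminescence (30 min, room temperature) in the same wells as the beta-lactamase readout. HEK293T PR-UAS-bla cells in charcoal-stripped 2% FBS received compound and R5020, then 16 h at 37C, 5% CO2.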

[4] = qHTS assay for small molecule agonists of the p53 signaling pathway (AID 651631; calls by dose curve; further: nearly all actives have a fitted effect of over 15% in size; further: potency means the concentration at half of the fitted maximal effect); details: HCT-116 p53RE-bla reporter, beta-lactamase FRET ratio, 16 h; activation: at 73.3 µM (top of the series) unless noted
Procedure, shortened: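 Readout was fluorescence from the LiveBLAzer FRET substrate, applied for 2 h at room temperature after 16 h compound exposure at 37 °C. Cells were the p53RE-bla HCT-116 line, with beta-lactamase driven by p53 response elements.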

[5] = qHTS assay for identifying genotoxic compounds that show differential cytotoxicity against isogenic chicken DT40 cell lines with known DNA damage response pathways - Rev3 mutant cell line (AID 743014); details: chicken DT40 Rev3-/- viability, CellTiter-Glo, 40 h; activity, negative = cytotoxicity: at 68.4 µM (top of the series) unless noted; further: nearly all actives have a fitted effect of over 55% in size; further: potency means the concentration at half of the fitted maximal effect
[6] = target: Vitamin D3 receptor (Homo sapiens) (UniProt P11473); assay: qHTS assay to identify small molecule antagonists of the vitamin D receptor (VDR) signaling pathway (AID 743223; active means well fitted inhibition curve with a large enough effect in the signal ratio in the repeat runs, not every such curve was filed as active; inconclusive means weak or mixed curves, or effect the other way; inactive means no such curve, though single readings can be large or run the other way; the % refers to the signal ratio; further: potency means the concentration at half of the fitted maximal effect); details: VDR-UAS-bla HEK293T, beta-lactamase FRET ratio, 16 h; activity change, negative = inhibition: at 61 µM (top of the series) unless noted
Procedure, shortened: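 Antagonist mode: compound added to VDR-bla cells alongside agonist 1alpha,25-dihydroxyvitamin D3 (3 nM final), incubation 16 h at 37C. Read-out is LiveBLAzer FRET fluorescence, 2 h at room temperature.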

[7] = target: Progesterone receptor (Homo sapiens) (UniProt P06401); assay: qHTS assay to identify small molecule antagonists of the progesterone receptor (PR) signaling pathway (AID 1346795; active means well fitted inhibition curve with a large enough effect in the signal ratio in the repeat runs, not every such curve was filed as active; inconclusive means weak or mixed curves; the % refers to the signal ratio; further: on the % scale 0 is the no-effect control and ±100 the full control effect); details: PR-UAS-bla HEK293T, beta-lactamase FRET ratio, 16 h; activity change, negative = inhibition: at 92.4 µM (top of the series) unless noted
Procedure, shortened: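 Antagonist mode with agonist R5020 at 1 nM final and 16 hr incubation at 37C. Reporter was beta-lactamase driven by UAS in HEK293T (PR-UAS-bla), 2% charcoal-stripped serum; signal from LiveBLAzer FRET substrate, 2 hr at room temperature.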

[8] = target: Cytochrome P450 1A2 (Homo sapiens) (UniProt P05177); assay: Cytochrome P450 Family 1 Subfamily A Member 2 (CYP1A2) small molecule antagonists: luciferase reporter qHTS assay (AID 1671199); further: nearly all actives have a fitted effect of over 50% in size; further: potency means the concentration at half of the fitted maximal effect
Procedure, shortened: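 Read-out is luminescence from luciferin detection reagent (20 min) proportional to CYP1A2 activity; compounds in DMSO preincubated 10 min with enzyme and proluciferin substrate, then NADPH regeneration solution, 1 h, room temperature.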

[9] = qHTS assay for identifying genotoxic compounds that show differential cytotoxicity against isogenic chicken DT40 cell lines with known DNA damage response pathways - wild type cell line (AID 743012); details: DT40 wild type chicken cells viability, CellTiter-Glo, 40 h; activity change, negative = cytotoxicity: at 68.4 µM (top of the series) unless noted; further: nearly all actives have a fitted effect of over 60% in size; further: potency means the concentration at half of the fitted maximal effect
Procedure, shortened: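 Endpoint: CellTiter-Glo luminescence, 30 min RT. Cells: wild type DT40, 300/well. Exposure: compounds in DMSO, 40 h, 37 C/5% CO2, after ~0.5 h pre-incubation.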

[10] = qHTS assay for small molecule agonists of the antioxidant response element (ARE) signaling pathway (AID 743202; active means well fitted activation curve with a large enough effect in the signal ratio in the repeat runs, not every such curve was filed as active; inconclusive means weak or mixed curves, or effect the other way; inactive means no such curve, though single readings can be large or run the other way; the % refers to the signal ratio; further: on the % scale 0 is the no-effect control and ±100 the full control effect); details: HepG2 ARE-bla reporter, beta-lactamase FRET, 16 h; activation: at 73.3 µM (top of the series) unless noted
Procedure, shortened: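 HepG2 ARE-bla reporter line, 2,000 cells/well; 5 h preincubation 37 C/5% CO2; compound (DMSO) 16 h 37 C; B/G FRET substrate 2 h RT; fluorescence intensity.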

[11] = qHTS RealTime-Glo MT Cell Viability Assay in HEK293 cells - 24 hour (AID 1224886); further: potency means the concentration at half of the fitted maximal effect; nearly all actives have a fitted effect of over 50% in size
Procedure, shortened: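 Viability tracked continuously by luminescence as live cells reduce a prosubstrate for NanoLuc; HEK293 cells preincubated 5 h, compound-treated at 37 C, and read at 0, 8, 16, 24, 32 and 40 h.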

[12] = target: Cytochrome P450 2C9 (Homo sapiens) (UniProt P11712); assay: Cytochrome P450 Family 2 Subfamily C Member 9 (CYP2C9) small molecule antagonists: luciferase reporter qHTS assay (AID 1671198); further: on the % scale 0 is the no-effect control and ±100 the full control effect; nearly all actives have a fitted effect of over 50% in size
Procedure, shortened: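 P450-Glo proluciferin substrate with CYP2C9 enzyme; 10 min RT preincubation, then NADPH regeneration 1 h at 37C; luciferin detection reagent 20 min RT, luminescence in relative luminescence units.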

[13] = target: Peroxisome proliferator-activated receptor delta (Homo sapiens) (UniProt Q03181); assay: qHTS assay to identify small molecule antagonists of the peroxisome proliferator-activated receptor delta (PPARd) signaling pathway (AID 743215; active means well fitted inhibition curve with a large enough effect in the signal ratio in the repeat runs, not every such curve was filed as active; inconclusive means weak or mixed curves, or effect the other way; inactive means no such curve, though single readings can be large or run the other way; the % refers to the signal ratio;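 further: cells stimulated with agonist L165041 at 300 nM final during compound exposure; on the % scale 0 is the no-effect control and ±100 the full control effect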); details: HEK293H PPARd-UAS-bla, beta-lactamase FRET ratio, antagonist, 17 h; ratio activity, negative = inhibition: at 62 µM (top of the series) unless noted
Procedure, shortened: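 Screen format: qHTS, antagonist mode. HEK293H PPARd-bla cells received compound and 300 nM L165041 (final), 17 h, 37 C. Beta-lactamase detected via FRET substrate fluorescence, 2 h, room temperature.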

[14] = target: Estrogen receptor beta (Homo sapiens) (UniProt Q92731); assay: qHTS assay to identify small molecule antagonists of the estrogen receptor beta (ER-beta) signaling pathway (AID 1259378; active means well fitted inhibition curve with a large enough effect in the signal ratio in the repeat runs, not every such curve was filed as active; inconclusive means weak or mixed curves, or effect the other way; inactive means no such curve, though single readings can be large or run the other way; the % refers to the signal ratio; further: on the % scale 0 is the no-effect control and ±100 the full control effect); details: ER-beta-UAS-bla HEK293T, beta-lactamase FRET ratio, 16 h; activity, negative = inhibition: at 92.4 µM (top of the series) unless noted
Procedure, shortened: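 ER-beta-UAS-bla HEK293T cells in 2% charcoal-stripped FBS medium treated with compound plus 1nM final 17-beta-estradiol for 16 hr at 37C. Beta-lactamase reporter read by FRET substrate fluorescence after 2 hours at room temperature.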

[15] = qHTS assay for small molecule disruptors of the mitochondrial membrane potential (AID 720635); details: HepG2 mitochondrial membrane potential, Mito-MPS dye ratio; ratio activity, negative = MMP loss: at 83.2 µM (top of the series) unless noted; further: potency means the concentration at half of the fitted maximal effect
Procedure, shortened: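 HepG2 cells exposed to compound 1 hr at 37C, then Mito-MPS dye 30 min. Ratio read of aggregate (540/590 nm) versus monomer (490/535 nm) fluorescence.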

[16] = qHTS assay to identify small molecule antagonists of the thyroid receptor (TR) signaling pathway - cell viability counter screen (AID 743064); details: GH3.TRE-Luc viability, CellTiter-Fluor, 24 h; activity change, negative = cytotoxic: at 70.3 µM (top of the series) unless noted
Procedure, shortened: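 In-well cytotoxicity read by CellTiter-Fluor (30 min, 37 C) following 23.5 h exposure of GH3 cells bearing a TRE-luciferase sensor. Compounds were added alongside 1 nM (final) T3 to drive TR transactivation.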

[17] = target: Cytochrome P450 2D6 (Homo sapiens) (UniProt P10635); assay: Cytochrome P450 Family 2 Subfamily D Member 6 (CYP2D6) small molecule antagonists: luciferase reporter qHTS assay (AID 1671196)
Procedure, shortened: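 Chemicals tested for interference with CYP2D6 activity; proluciferin substrate, NADPH regeneration, 1 h at room temperature, luminescent detection.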

[18] = target: Glucocorticoid receptor (Homo sapiens) (UniProt P04150); assay: qHTS assay to identify small molecule antagonists of the glucocorticoid receptor (GR) signaling pathway (AID 720692; active means well fitted inhibition curve with a large enough effect in the signal ratio in the repeat runs, not every such curve was filed as active; inconclusive means weak or mixed curves, or effect the other way; inactive means no such curve, though single readings can be large or run the other way; the % refers to the signal ratio; further: potency means the concentration at half of the fitted maximal effect); details: GR-bla HeLa, beta-lactamase FRET ratio, dexamethasone-stimulated, 18 h; activity change, negative = inhibition: at 58.5 µM (top of the series) unless noted
Procedure, shortened: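 Tox21 10K library screened in concentration-response for blockade of dexamethasone (5 nM final)-induced GRE-bla reporter activity in HeLa cells; 18 h treatment, fluorescence read.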
Tags describe the fitted curve by direction and shape or compound fluorescence and quenching.

Chain of UniProt P37231 (P37231 whole entry, looked up): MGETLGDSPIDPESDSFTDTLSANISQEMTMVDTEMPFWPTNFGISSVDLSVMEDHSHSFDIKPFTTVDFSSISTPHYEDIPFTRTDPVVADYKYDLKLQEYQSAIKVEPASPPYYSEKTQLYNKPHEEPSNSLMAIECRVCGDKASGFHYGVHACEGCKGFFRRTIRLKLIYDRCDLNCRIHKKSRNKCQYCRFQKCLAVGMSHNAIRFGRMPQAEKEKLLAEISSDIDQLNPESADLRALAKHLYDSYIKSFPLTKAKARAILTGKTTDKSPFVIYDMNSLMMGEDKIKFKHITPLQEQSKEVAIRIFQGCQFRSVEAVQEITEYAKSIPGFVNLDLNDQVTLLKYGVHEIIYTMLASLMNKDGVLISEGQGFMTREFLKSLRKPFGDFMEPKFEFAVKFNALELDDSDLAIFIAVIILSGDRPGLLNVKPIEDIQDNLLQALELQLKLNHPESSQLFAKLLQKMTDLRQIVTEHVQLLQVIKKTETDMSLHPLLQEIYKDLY
Chain of UniProt P05177 (P05177 whole entry, looked up): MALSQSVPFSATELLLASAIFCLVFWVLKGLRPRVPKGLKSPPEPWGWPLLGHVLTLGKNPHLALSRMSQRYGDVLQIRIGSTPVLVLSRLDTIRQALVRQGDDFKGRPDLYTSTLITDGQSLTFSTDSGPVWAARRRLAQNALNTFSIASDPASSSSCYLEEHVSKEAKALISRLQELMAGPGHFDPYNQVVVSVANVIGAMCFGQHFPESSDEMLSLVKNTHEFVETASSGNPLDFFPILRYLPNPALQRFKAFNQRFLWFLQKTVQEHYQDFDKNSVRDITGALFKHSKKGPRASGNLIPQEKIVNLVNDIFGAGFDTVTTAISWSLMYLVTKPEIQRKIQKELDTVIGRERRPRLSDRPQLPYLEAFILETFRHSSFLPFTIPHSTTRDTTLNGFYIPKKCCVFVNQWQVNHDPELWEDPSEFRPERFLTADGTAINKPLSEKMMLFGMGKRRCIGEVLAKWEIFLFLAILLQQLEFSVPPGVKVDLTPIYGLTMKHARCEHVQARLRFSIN
Chain of UniProt P06401 (P06401 whole entry, looked up): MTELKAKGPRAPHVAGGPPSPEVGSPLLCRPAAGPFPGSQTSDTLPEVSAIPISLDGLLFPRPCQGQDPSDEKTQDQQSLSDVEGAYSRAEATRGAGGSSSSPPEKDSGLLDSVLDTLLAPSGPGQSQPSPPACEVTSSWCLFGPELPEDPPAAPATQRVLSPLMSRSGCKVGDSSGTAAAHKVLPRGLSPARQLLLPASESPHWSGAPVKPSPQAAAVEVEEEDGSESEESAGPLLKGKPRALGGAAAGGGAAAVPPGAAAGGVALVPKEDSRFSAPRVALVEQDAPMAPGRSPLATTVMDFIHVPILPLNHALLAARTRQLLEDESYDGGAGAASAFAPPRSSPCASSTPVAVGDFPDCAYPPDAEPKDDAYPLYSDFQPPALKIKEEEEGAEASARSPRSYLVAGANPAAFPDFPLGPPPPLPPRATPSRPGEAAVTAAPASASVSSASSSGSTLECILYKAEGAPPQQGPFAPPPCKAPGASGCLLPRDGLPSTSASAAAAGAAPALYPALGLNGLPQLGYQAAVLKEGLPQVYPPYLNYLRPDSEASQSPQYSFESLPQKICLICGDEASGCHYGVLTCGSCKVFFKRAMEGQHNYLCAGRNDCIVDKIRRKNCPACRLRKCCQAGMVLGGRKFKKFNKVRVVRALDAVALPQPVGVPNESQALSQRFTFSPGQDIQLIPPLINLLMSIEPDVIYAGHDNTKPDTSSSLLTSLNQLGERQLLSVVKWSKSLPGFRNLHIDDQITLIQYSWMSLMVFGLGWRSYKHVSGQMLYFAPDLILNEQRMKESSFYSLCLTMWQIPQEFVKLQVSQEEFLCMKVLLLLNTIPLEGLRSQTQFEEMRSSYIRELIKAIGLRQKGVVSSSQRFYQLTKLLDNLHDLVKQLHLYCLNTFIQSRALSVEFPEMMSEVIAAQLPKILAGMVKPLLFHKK
Chain of UniProt P11473 (P11473 whole entry, looked up): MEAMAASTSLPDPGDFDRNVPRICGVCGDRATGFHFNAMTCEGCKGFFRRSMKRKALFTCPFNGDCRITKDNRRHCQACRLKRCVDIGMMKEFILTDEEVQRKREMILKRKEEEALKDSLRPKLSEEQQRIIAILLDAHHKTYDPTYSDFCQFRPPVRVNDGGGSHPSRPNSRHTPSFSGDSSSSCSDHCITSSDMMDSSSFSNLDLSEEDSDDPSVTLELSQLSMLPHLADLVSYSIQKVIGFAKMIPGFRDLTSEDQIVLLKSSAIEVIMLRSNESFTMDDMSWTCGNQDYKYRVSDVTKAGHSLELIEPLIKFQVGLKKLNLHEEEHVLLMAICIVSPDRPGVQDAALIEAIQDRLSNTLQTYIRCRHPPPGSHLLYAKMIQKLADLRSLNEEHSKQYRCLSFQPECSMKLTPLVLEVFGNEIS
Chain of UniProt Q03181 (Q03181 whole entry, looked up): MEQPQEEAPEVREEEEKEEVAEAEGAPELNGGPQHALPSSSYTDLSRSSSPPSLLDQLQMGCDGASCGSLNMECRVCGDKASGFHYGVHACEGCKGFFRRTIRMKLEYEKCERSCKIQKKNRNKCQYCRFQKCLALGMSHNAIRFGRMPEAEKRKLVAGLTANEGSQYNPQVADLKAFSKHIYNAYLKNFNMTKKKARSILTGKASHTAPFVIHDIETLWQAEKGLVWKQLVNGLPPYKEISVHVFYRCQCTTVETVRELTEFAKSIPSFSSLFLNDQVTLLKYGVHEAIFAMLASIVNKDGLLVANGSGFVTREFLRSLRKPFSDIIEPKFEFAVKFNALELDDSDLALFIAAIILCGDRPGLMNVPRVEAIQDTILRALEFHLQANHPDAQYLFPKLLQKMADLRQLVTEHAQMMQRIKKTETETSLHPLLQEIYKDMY
Chain of UniProt Q92731 (Q92731 whole entry, looked up): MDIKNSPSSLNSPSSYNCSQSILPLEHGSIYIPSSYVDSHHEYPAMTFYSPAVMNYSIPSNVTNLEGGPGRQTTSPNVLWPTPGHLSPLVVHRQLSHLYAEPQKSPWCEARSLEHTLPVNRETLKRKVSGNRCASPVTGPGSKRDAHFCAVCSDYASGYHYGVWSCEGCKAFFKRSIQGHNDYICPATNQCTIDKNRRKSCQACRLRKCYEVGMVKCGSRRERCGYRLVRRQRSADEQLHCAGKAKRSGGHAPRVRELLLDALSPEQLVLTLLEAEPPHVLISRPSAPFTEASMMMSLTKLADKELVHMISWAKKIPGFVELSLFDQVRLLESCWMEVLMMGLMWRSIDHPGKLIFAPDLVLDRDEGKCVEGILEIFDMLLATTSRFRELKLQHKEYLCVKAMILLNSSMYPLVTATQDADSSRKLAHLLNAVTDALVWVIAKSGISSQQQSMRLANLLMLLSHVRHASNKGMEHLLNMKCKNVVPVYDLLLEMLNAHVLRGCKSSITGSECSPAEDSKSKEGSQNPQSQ
Chain of UniProt P11712 (P11712 whole entry, looked up): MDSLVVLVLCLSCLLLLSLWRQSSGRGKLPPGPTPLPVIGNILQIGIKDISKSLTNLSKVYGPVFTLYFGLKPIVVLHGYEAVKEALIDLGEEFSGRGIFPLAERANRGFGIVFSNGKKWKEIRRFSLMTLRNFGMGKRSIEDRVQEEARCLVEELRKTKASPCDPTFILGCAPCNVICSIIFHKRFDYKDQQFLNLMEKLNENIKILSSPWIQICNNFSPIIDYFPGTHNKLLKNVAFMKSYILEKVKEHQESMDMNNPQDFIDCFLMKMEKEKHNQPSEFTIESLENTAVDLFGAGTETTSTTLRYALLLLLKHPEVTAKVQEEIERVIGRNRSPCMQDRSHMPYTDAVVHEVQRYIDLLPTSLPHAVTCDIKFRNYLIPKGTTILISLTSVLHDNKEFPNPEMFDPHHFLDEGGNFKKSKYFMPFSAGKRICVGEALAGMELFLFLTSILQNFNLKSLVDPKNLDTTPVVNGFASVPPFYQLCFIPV
Chain of UniProt P10635 (P10635 whole entry, looked up): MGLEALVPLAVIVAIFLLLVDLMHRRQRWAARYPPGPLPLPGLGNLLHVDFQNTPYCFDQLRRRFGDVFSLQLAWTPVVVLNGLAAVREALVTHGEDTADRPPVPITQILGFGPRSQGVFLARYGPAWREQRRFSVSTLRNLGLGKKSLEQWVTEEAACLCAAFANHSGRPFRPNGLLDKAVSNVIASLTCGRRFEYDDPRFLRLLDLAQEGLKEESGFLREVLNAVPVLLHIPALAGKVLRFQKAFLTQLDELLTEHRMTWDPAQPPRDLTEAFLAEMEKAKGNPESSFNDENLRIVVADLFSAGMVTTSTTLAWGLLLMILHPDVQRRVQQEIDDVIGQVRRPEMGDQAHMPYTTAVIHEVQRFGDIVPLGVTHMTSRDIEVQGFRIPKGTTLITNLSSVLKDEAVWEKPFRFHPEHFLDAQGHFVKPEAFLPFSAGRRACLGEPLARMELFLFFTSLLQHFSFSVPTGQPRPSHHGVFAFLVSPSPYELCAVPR

NC(=O)NS(=O)(=O)c1ccc(Cl)cc1
Potency [1]: inactive | Potency [2]: inconclusive: 0.0075 µM [rising, full curve, poor fit]

CO[Si](CCCNCCNCCN)(OC)OC
Potency [3]: inactive | Potency [2]: inactive

CCC(C)C(=O)OC (centres undefined)
Potency [2]: inconclusive: 6.11 µM [cytotoxic, single point]

O=C(CCCCC(=O)Nc1c(I)cc(I)c(C(=O)O)c1I)Nc1c(I)cc(I)c(C(=O)O)c1I
Potency [4]: inconclusive: 37.6 µM [rising, partial curve, poor fit] | Potency [5]: inactive | Potency [6]: inconclusive: 26.8 µM [activator, single point] | Potency [7]: inactive | Potency [3]: inconclusive: 33.5 µM [cytotoxic, single point] | Potency [8]: inactive

NC(=O)Cc1cccc(C(=O)c2ccccc2)c1N
Potency [9]: inconclusive: 33.5 µM [cytotoxic, partial curve, poor fit] | Potency [10]: inactive | Potency [6]: inactive | Potency [11]: inconclusive: 26.8 µM [cytotoxic, single point] | Potency [2]: inconclusive: 0.75 µM [rising, full curve, poor fit] | Potency [12]: inactive

CCC(C)(C)C1CCC(=O)CC1
Potency [5]: inconclusive: 6.11 µM [cytotoxic, full curve, poor fit] | Potency [1]: inconclusive: 54.9 µM [activator, single point] | Potency [10]: inactive | Potency [13]: inactive | Potency [2]: inactive

CCOC(=O)CN1CCCC1=O
ratio activity, negative = inhibition [1]: inconclusive: 17.5% | Potency [14]: inactive | Potency [7]: inactive | Potency [2]: inconclusive: 33.5 µM [cytotoxic, single point] | Potency [8]: inactive

CCCCCCCCCCCCCCCC(=O)NCCO
Potency [4]: inactive | Potency [15]: inactive | Potency [16]: inconclusive: 8.41 µM [rising, partial curve, poor fit] | activation [10]: inconclusive: -2.91% | ratio activity, negative = inhibition [13]: inconclusive: 0.191%

C1CCCCCCCCCCC1
ratio activity, negative = MMP loss [15]: inconclusive: 4.5% [at 39.1 µM] | Potency [9]: inactive | Potency [5]: inactive | Potency [11]: inconclusive: 13.5 µM [cytotoxic, single point] | activity change, negative = cytotoxicity [2]: inactive: 1.68% [at 19 µM]

CCOC(=O)c1c(C)n(C)c2ccc(O)cc12
activation [4]: inconclusive: -1.11% | Potency [15]: active: 7.84 µM | Potency [9]: inconclusive: 26.6 µM [cytotoxic] | Potency [5]: inconclusive: 33.5 µM [cytotoxic, partial curve, poor fit] | Potency [1]: inconclusive: 10.6 µM [activator, partial curve] | activation [10]: inconclusive: 22% | activity, negative = inhibition [14]: inconclusive: 15.6% [at 42.5 µM] | Potency [7]: inactive | Potency [3]: inactive | Potency [17]: inconclusive: 15.5 µM [inhibitor, full curve]

CCCCCCC#CC(=O)OC
Potency [15]: inactive | Potency [18]: inconclusive: 61.7 µM [fluorescent, partial curve, poor fit] | Potency [5]: inactive | Potency [1]: inactive | activation [10]: inconclusive: 23.5% | Potency [12]: inactive | Potency [8]: inconclusive: 79.6 µM [inhibitor, single point]
